Recombinant human monoclonal antibodies (heavy:light variable regions). ELISA EC50 on the named antigen, from 10 µg/ml down; IC50 against spike pseudovirus on HT1080-ACE2 cells, 48 h; lower = stronger. Calls: IC50 above 1,000 ng/ml = non-neutralizing; EC50 above 1,000 ng/ml = non-binder.
Columns and labels:
[1] = biological target: SARS-CoV-2 Omicron BA.1 spike pseudovirus; experiment: pseudovirus neutralization IC50; higher = weaker neutralization
Method: (§1)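 Single-round luciferase reporter pseudovirus mixed with antibody dilutions and put on HT1080-ACE2 clone 14 cells for 48 h; signal relative to no-antibody wells, four-parameter fit.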

[2] = biological target: SARS-CoV-2 Omicron BA.4/5 spike pseudovirus; experiment: as above
Method: as §1

[3] = biological target: SARS-CoV-2 Wuhan-Hu-1 spike pseudovirus; experiment: as above
Method: as §1

[4] = biological target: SARS-CoV-2 Wuhan-Hu-1 spike receptor-binding domain; experiment: ELISA binding EC50; higher = weaker binding; ELISA of recombinant human antibody on coated antigen, from 10 µg/ml in fourfold dilutions; four-parameter fit.

| Binder | pseudovirus neutralization IC50 [1] [ng/mL] | pseudovirus neutralization IC50 [2] [ng/mL] | pseudovirus neutralization IC50 [3] [ng/mL] | ELISA binding EC50 [4] [ng/mL] |
| --- | --- | --- | --- | --- |
| C5320 (protein) chain 1: QVQLQESGPGLVKPSQTLSLICNVSGDSISSGAHYWSWIRQPAGKAMEWIGRIYTSGSPSGSPNYNPSLQGRVTMSVDTSTNRFSLKVTSVTAADSAVYYCASGTFFYYFDQWGQGILVTVSS chain 2: NFMLTQPHSVSESPGKTVTISCTRSDGSIAGNYVQWYQQRPGSAPTTVIVEDNQRPSGVPDRFSGSIDMSSNSASLIISGLKIEDEADYYCQSWQLNMVVFGGGTKLTVL | 4.57 | 690 | 4.06 | 3.05 |
| C5256 (protein) chain 1: QVQLVQSGAEVKKPGSSVKVSCEASGGPFSTYTFSWVRQAPGQGLEWLGRILPVLNITNYAQKFQSRVTITADKSTSTAYMELRSLRSEDTAVYYCARNSGYDLLDYSGMDLWGQGTTVTVSS chain 2: DIQMTQSPSTLSASVGDRVTITCRASQTIITWLAWYQQKPGKAPNLLIYKASSLESGVPSRFSGSGSGTEFTLTISSLQPDDFATYYCQQYYTYSWTFGQGTKVEIK | 4.38 | > 1000 | 4.74 | 2.92 |
| C5260 (protein) chain 1: EVQLVESGGGLVQPGGSLRLSYSASGFTFSEYAMHWVRQAPGRGLEYVSSISSKGDIRDYADSVKGRFTISRDNSKNTLYLQMSSLRVDDTAVYFCVKDVPPDTSMVTVFDYWGQGTLVTVSS chain 2: DIQMTQSPSSLSASVGDRVTITCRASQRISMYLNWYQQKPGKAPKLLISAASSLQSGVPSRFSGSGSGTDFTLAISSLQPEDFATYYCQQSYVNPPTFGPGTKVEI | > 1000 | > 1000 | > 1000 | 2.3 |
| C5257 (protein) chain 1: EVQLVESGGGLVKPGGSLRLSCLISGFTLSRFNMNWVRQAPGKGLEWVASISETSSHIYYADSVKGRFTISRDNAKNSLYLEMSSLRTEDTGLYYCVRDAFWSGPMPAYWGQGTLVTVSS chain 2: DVVMTQSPLSLPVTLGQPASISCSFSQSLVYSDGNTYLSWFQQRPGQSPRRLIYQVSNRDSGVPDKFSGSGSGTDFTLKISRVEAEDVGVYYCLQGTHWPPTFGQGTKVEI | > 1000 | > 1000 | 1.22 | 2.31 |
| C5253 (protein) chain 1: QVQLVESGGGVVHPGRSLRLSCAASGFTFSTYGMHWVRQAPGKGPEWLTVISYDGDFKYYADSVKGRFTISRDNSKNTVYLQMNSLRTEDTAVYFCAKQLSPYCSGGSCYSYFDYWGQGTLVTVSS chain 2: DIQMTQSPSSLSASIGDRVTITCQASQGISHFLNWFQQKPGKAPKLLIYDVSNLEAGVPSRFSGRGSGTDFTFTISSLQPEDIATYYCQQYDSLPLTFGGGTKVEIK | > 1000 | > 1000 | > 1000 | 4.98 |
| C5258 (protein) chain 1: QVQLQESGPGLVKPSETLSLTCTVSGGSISTYYWSWIRQPPGKGLEWIGYMYYSGSSYYNPSLKSRVTISVDTSKNQFSLKLTSVTAADTAVYYCASSDWGGMYYYDYWGQGTLVTVSS chain 2: EIVLTQSPGTLSLSPGERATLSCRASQSVYSSYLAWYQQKPGQAPRLLIYGASSRATGIPDRFSGSGSGTDFSVTIRRLEPEDFAVYYCQQYGSTPWTFGQGTKVEIK | 220 | > 1000 | 6.87 | 5.4 |
| C5255 (protein) chain 1: QVQLVQSGAEVRKPGSSVNVSCKASGGTLTSYTLTWVRQAPGQGLEWLGRIIPMFDRANYAPKFQGRVTITADKSTNTAYMEVTSLRSDDTAVYYCAISPGIAIPLRGFDPWGQGTLVIVSS chain 2: EIVMTQSPATLSVSPGARATLSCRASQSVSSDLAWYQQKPGQAPRLLIYGASTRATGLPTRFSGSGSGTEFTLTISSLHFEDFAVYYCQQYNNWPLTFGGGTKVEIK | > 1000 | > 1000 | 0.902 | 3.18 |
| C5265 (protein) chain 1: EVQLLESGGGLVQPGGSLRLSCAASGVTVSSEAMHWVRQAPGKGLEWVAGLSSSGGGTFYADSVKGRFTISRDTSKNTLYLQMTSLRAEDTALYYCTKETSQWLVTWFDPWGQGTLVTVSS chain 2: DIQMTQSPSSLSASVGDRVTITCRASQTIINYLNWYQQKPGKAPMLLVYAASSLHTGVPSRFSGSGSGTDFTLTISGLQPEDFATYYCQQSYSAPPWTFGQGTKVDMK | > 1000 | > 1000 | > 1000 | 6.46 |
| C5252 (protein) chain 1: QVQLVQSGAEVKKPGSSVKVSCKASGGTFSSYSISWVRQAPGKGLEWMGKIIPILGVANYAQMFQGKVTITADKSTNTAYLELSSLRSDDTALYFCARETGYSGSGNLPAEYFHIWGQGTLVTVSS chain 2: QSVLTQPPSVSGAPGQRVTISCTGTNSNIGAGYDVHWYQQLPGAAPKLLIYANNNRPSGVPDRFSGSRSGTSASLAITGLQADDEADYYCQSYDSSLTGSVFGGGTKLTVL | 6.36 | 405 | 186 | 6.02 |
| C5262 (protein) chain 1: EVQLVESGGGLLQPGGSLRLSCVASGVTVSRNYMNWVRQAPGKGPEWVSVIFPGGSTFYLESVKGRFTISRDHSKNTLYLQMDRLRVDDTAVYYCARDLGPMGFDIWGQGTMVTVSS chain 2: DIQLTQSPPFLSASVGDRVTITCRASEGFNNDLAWYQQKPGKAPKLLIYAASTLQSGVPSRFSGSGSGTEFTLTISSLQPEDFATYYCQHLNTHPPPFGGGTKVEIK | 0.605 | 0.639 | 1.19 | 3.11 |
| C5047 (protein) chain 1: QVQLVESGGGVVQPGRSLRLSCEASGFTFSRHAMHWVRQAPGNGLEWVAFISFDGSQQYYADSVKGRLILSRDNSKNTLYLQMNSLRPEDTAVYYCAINTLYHYDSSGPFDHWGQGTLVTVSS chain 2: DIQMTQSPSTLSASVGDRVTITCRASQSISSWLAWYQQKPGKAPKLLIYDSSTLESGVPSRFSGSGSGAEFTLTISSLQPDDFTTYYCHQYNSYPWTFGQGTKVEIK | 254 | 945 | 555 | 4.22 |
| C5048 (protein) chain 1: EVQLVESGGGLVQPGGSLRLSCSASGFTFSDSAMHWVRQAPGKGLEYVSAINGDGGSTYYADSVKGRFIISRDNSRNTLYLQMNSLRIADTALYYCVKEGDSSGYYPNWFDPWGQGTLVTVSS chain 2: SYVLTQPPSVSVAPGQTARITCGGNEIGSKSVHWYLQKPGQAPVLVIFYDSDRPSGIPERFSGSNSGNTATLTITRVEAGDEADYFCQVWDSISVSVVFGGGTKLTVL | 177 | 848 | 63.9 | 6.25 |
| C5254 (protein) chain 1: QVQLVESGGGVVRPGGSLRLSCAASGFASDDYGMSWVRQVPGKGLEWVSGINWNGDSRGYADSVRGRFTISRDNAKNSLYLQMNSLRAEDTALYYCARMSGYDYTRPLDYWGQGTLVTVSS chain 2: SYELTQPPSVSVAPGQTARMTCGGDNIGYKSVNWYQQKPGQAPVLVVYDDSGRPSGIPERFSGSNSGNTATLTITRVEAGDEADFYCQVWDTNSDHHVVFGGGTKLTVL | 925 | > 1000 | > 1000 | 5.54 |
| C5264 (protein) chain 1: QVQLVESGGGVVQPGRSLRLSCAASGFTFSNYGMHWVRQAPGKGLEWVAVISFDGSDKYYTGSVKGRFTISRDKSKNTLYLQMNSLRPEDTAVYYCAKDGPPYASGWYEGYYLDYWGQGTLVTVSS chain 2: DIQMTQSPSSLSASVGDRVTITCRASQSISNFLNWFQQKPGKAPRLLIFAASSLQSGVPSRFSGSGSGTDFTLTISSLQPEDFATYYCQQSSSPPLTFGQGTRLEIK | > 1000 | > 1000 | > 1000 | 4.06 |
| C5261 (protein) chain 1: QVQLVQSGAEVKKPGAAVKVSCKASGYMFSDYYLHWVRQAPGQGLEWMGIINPSAGSTTYAQKFQGRVTMTTDTSTSTVYMELSSLRSDDTAVYYCARDFFLIPAAIGLDYWGQGTLVTVSS chain 2: EIVLTQSPGTLSLSPGERATLSCRASQSVSSRHLAWYQQKPGQAPRLLIYGASNRATGIPDRFSGSGSGTDFTLTISRLEPEDFAVYYCHQSGSSPPHTFGQGTTLEIK | > 1000 | > 1000 | > 1000 | 8 |

From the supplement of paper PMC10300432
